According to PubChem BioAssay AID686978 (National Center for Advancing Translational Sciences (NCATS), 2013):
Out of some 420,000 compounds screened, about 64,000 (15%) were called active. The inconclusive results got no clear call from the source; some entries with a clear call stand among them for comparison. Calls come from the whole dose curve; as a rule, active = well fitted inhibition curve with a large enough effect; inconclusive = small, poorly fitted or top-dose-only effect; inactive = flat fitted curve, though single readings scatter. Potencies of inconclusive entries are left out as doubtful fits.
% is set by controls: 0 for no effect and ±100 for the full control effect; potency is the fitted concentration of half-maximal effect; tags give direction and shape of the fitted curve.

Assay: qHTS for Inhibitors of human tyrosyl-DNA phosphodiesterase 1 (TDP1): qHTS in cells in absence of CPT; note: nearly all actives have a fitted effect of over 55% in size
Details: DT40 Tdp1-/- hTDP1 cells, no CPT, ATP luminescence, 48 h; activity change, negative = growth inhibition: at 46.2 µM (top of the series) unless noted
Procedure, shortened: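 Chicken DT40 Tdp1-/- cells stably complemented with human TDP1 were seeded at 400 cells/well with DMSO in place of 20 nM camptothecin. After compound pinning, cells grew at least 48 hr at 37 °C; viability read by CellTiter-Glo luminescence.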
In the case of `CC(C)(C)c1ccc(/C=N/N2CCN(c3ccccn3)CC2)cc1`, the Potency is reported as inconclusive [inhibitor, single point]. With `Cc1cccc(C)c1NC(=O)C1(C)CSCC(=O)N1CCCN1CCOCC1` (stereo not given) the “activity change, negative = growth inhibition” value was inactive: 5.15%. For `O=C(c1ccc(Cl)cc1)c1ccc(OCC(O)CN2CCCCC2)cc1` (stereo not given), the Potency was inconclusive [inhibitor, single point]. In the case of `Clc1ccc(CSc2cc3c(nn2)-c2ccccc2CC3)cc1Cl`, the Potency is reported as inconclusive [inhibitor, partial curve]. In the case of `O=C(c1cccs1)N1CCN(CCCc2ccccc2)CC1`, the “activity change, negative = growth inhibition” value is reported as inactive: -21.4%. For `CN(C)CCC(C(=O)c1ccccc1)c1ccccn1` (stereo not given), the “activity change, negative = growth inhibition” value was inactive: 7.38%. With `CC1CN(C2CCCCC2)c2nc3c(c(=O)n(C)c(=O)n3C)n2C1` (stereo not given) the “activity change, negative = growth inhibition” value was inactive: -26.3%. For `CCCS(=O)(=O)NCc1c(C)ncc2c1CCN(C(=O)c1cccc(-c3ccccc3F)c1)C2`, the Potency was inconclusive [inhibitor, single point]. For `Cc1cc(C(=O)Cn2nnc3ccccc3c2=O)c(C)n1Cc1cccs1`, the Potency was active: 18.4 µM. With `CCOc1ccccc1/C=N/NC(=O)CSc1n[nH]c(=O)[nH]c1=O` the “activity change, negative = growth inhibition” value was inactive: 0.943%. With `CCc1cccc(NC(=O)CCN2C(=O)c3ccccc3Sc3ncccc32)c1` the Potency was inconclusive [inhibitor, single point]. With `COc1ccc(CN(C(=O)Cc2coc3ccc(C)cc23)C2CCS(=O)(=O)C2)cc1` (stereo not given) the Potency was inconclusive [inhibitor, single point]. In the case of `O=C1OC(c2cccs2)=N/C1=C\c1ccc(-c2cccc(Cl)c2)o1`, the Potency is reported as inconclusive [inhibitor, single point]. With `CN(C(=O)c1cccc(NC(=O)Cc2ccc(NC(=O)C3CCCN(C(=O)C4CCCC4)C3)cc2)c1)C1CCCCC1` (stereo not given) the Potency was active: 16.4 µM. With `COc1ccc(C)cc1S(=O)(=O)NCC(c1ccc2c(c1)OCO2)N1CCOCC1` (stereo not given) the Potency was inconclusive [inhibitor, single point]. With `O=[N+]([O-])c1ccc(C=Nc2ccc(Cl)cc2Cl)s1` the Potency was active: 13 µM. For `O=C(N/N=C/c1ccccc1Br)c1cccc(S(=O)(=O)N2CCOCC2)c1`, the “activity change, negative = growth inhibition” value was inactive: -3.25%. For `NC(=O)COC(=O)c1cccc(S(=O)(=O)N2CCCc3ccccc32)c1`, the “activity change, negative = growth inhibition” value was inactive: -27.8%. In the case of `O=C(NCC1CCN(Cc2ccc(F)cc2)CC1)c1cc2ccc3cccnc3c2[nH]1`, the Potency is reported as active: 20.6 µM. In the case of `C/C=C1\COC(C(=O)NCc2ccccc2)(C(F)(F)F)C=C1C=C(C)C` (stereo not given), the Potency is reported as inconclusive [inhibitor, single point]. With `O=C(CCNC(=O)c1ccc([N+](=O)[O-])cc1)NCCc1ccccc1` the Potency was inconclusive [inhibitor, single point]. For `O=C(CC(CC(=O)c1ccccc1)c1ccncc1)c1ccccc1`, the Potency was inconclusive [inhibitor, single point]. With `c1ccc2c(NCCN3CCOCC3)nc(-c3ccc4c(c3)OCO4)nc2c1` the Potency was inconclusive [inhibitor, single point]. With `Cc1ccc(NS(=O)(=O)c2ccc(C(=O)NC3CCN(Cc4ccccc4)CC3)cc2)cc1` the Potency was active: 14.6 µM. For `CCc1cc2c(-c3ccccc3)cc(=O)oc2cc1OC(C)C(C)=O` (stereo not given), the Potency was inconclusive [inhibitor, single point]. With `C=CCOc1ccccc1CNCCc1ccc(S(N)(=O)=O)cc1` the “activity change, negative = growth inhibition” value was inactive: -19%. For `COc1ccc(C2C(C#N)=C(N)N(c3cccnc3)C3=C2C(=O)CC(C)(C)C3)cc1OC` (stereo not given), the Potency was inconclusive [inhibitor, single point]. For `Cc1ccccc1C(NC(=O)C1CCN(Cc2ccc(Oc3ccccc3)cc2)CC1)c1ccsc1` (stereo not given), the Potency was active: 18.4 µM. In the case of `COc1ccc(-c2cc3nc(C)c(CCC(=O)NC(C)CCc4ccco4)c(C)n3n2)c(OC)c1` (stereo not given), the Potency is reported as inconclusive [inhibitor, single point]. For `CC(C)N(C(=O)COC(=O)c1ccccc1C(=O)N1CCN(c2ccc(F)cc2)CC1)C(C)C`, the “activity change, negative = growth inhibition” value was inactive: -23.6%. With `CCn1nnnc1SCC(=O)Nc1nnc(C(C)C)s1` the Potency was inconclusive [inhibitor, partial curve]. With `COc1cc(Cl)c(C)cc1NC(=O)c1cc2c(s1)-c1c(C)cccc1OC2` the Potency was inconclusive [inhibitor, full curve, poor fit]. In the case of `CN1CCN(/N=C/c2ccc(C#N)cc2)CC1`, the “activity change, negative = growth inhibition” value is reported as inactive: -20.6%. In the case of `CNC(=O)CN1C(=O)c2ccccc2S1(=O)=O`, the “activity change, negative = growth inhibition” value is reported as inactive: -4.63%. For `O=C1CN(C(=O)/C=C/c2ccco2)c2ccccc2N1`, the Potency was inconclusive [inhibitor, single point]. For `O=C(/C=C/c1ccco1)OCc1nnc(-c2ccc(Cl)cc2)o1`, the “activity change, negative = growth inhibition” value was inactive: -8.77%. For `N#Cc1cc([N+](=O)[O-])ccc1NCCN1CCOCC1`, the “activity change, negative = growth inhibition” value was inactive: 2.38%. With `CCN1CCN(c2oc(-c3ccc(OC)cc3)nc2C#N)CC1` the Potency was inconclusive [inhibitor, partial curve]. For `CN(C)CCOC1(Cc2ccc(F)cc2)CCC(C(C)(C)C)CC1` (stereo not given), the Potency was active: 18.4 µM. For `CCCN(CC1CC1)c1nc(N)c2c(N)nc(OC)cc2c1C#N`, the Potency was active: 23.1 µM. With `Clc1ccc(Nc2ccc3ccccc3n2)cc1` the “activity change, negative = growth inhibition” value was inactive: -21%. With `Cc1cn(C2CCC(CO)O2)c(=O)[nH]c1=O` (stereo not given) the Potency was “inactive”. For `CC(CCc1ccc(O)cc1)NCCC(c1ccccc1)c1ccccc1` (stereo not given), the Potency was active: 5.17 µM. With `O=C(COC(=O)Cc1n[nH]c(=O)c2ccccc12)NNC(=O)c1ccc(Cl)cc1` the Potency was active: 23.1 µM. With `Cc1ccc(C(=O)Nc2cccc3ccccc23)o1` the Potency was inconclusive [inhibitor, single point]. For `CS(=O)(=O)N1CCCCC1c1cc(C(=O)Nc2ccccc2Cl)no1` (stereo not given), the “activity change, negative = growth inhibition” value was inactive: -27.2%. In the case of `O=C1/C(=C/c2ccc(C(=O)O)cc2)CCC/C1=C\c1ccc(C(=O)O)cc1`, the “activity change, negative = growth inhibition” value is reported as inactive: -13.9%. In the case of `Cn1c(=O)n(C)c2cc(NC(=O)c3ccc(F)cc3)c(Br)cc21`, the “activity change, negative = growth inhibition” value is reported as inactive: -20.8%. With `Nc1ccc(C(=O)Nc2ccc3nc(-c4cccnc4)[nH]c3c2)cc1` the Potency was inconclusive [inhibitor, partial curve]. With `O=C(COC(=O)/C=C/c1ccc([N+](=O)[O-])cc1)NC(c1ccccc1)c1ccccc1` the Potency was inconclusive [inhibitor, single point]. For `CC(=O)N1N=C(c2cccc(NS(=O)(=O)c3ccc(C)cc3)c2)CC1c1ccco1` (stereo not given), the Potency was inconclusive [inhibitor, single point]. For `CC(=O)N/N=C/c1cc2c(cc1[N+](=O)[O-])OCO2`, the “activity change, negative = growth inhibition” value was inactive: -10.1%. With `Cc1cc(OCC(=O)N(C)C2CCCCC2)ccc1Cl` the “activity change, negative = growth inhibition” value was inactive: -20.9%. With `COc1ccccc1NC(=O)CN(c1ccc(C23CC4CC(CC(C4)C2)C3)cc1)S(C)(=O)=O` the Potency was active: 14.6 µM. In the case of `CCC(=O)N1CCN(c2ccc(Cl)cc2NC(=O)c2ccc(N3CCCC3)c([N+](=O)[O-])c2)CC1`, the Potency is reported as inconclusive [inhibitor, single point]. In the case of `O=[N+]([O-])c1ccc(-c2nc(Nc3ccc(O)cc3)c3ccccc3n2)cc1`, the “activity change, negative = growth inhibition” value is reported as inactive: -0.717%. In the case of `Cc1ccccc1OC1(C)CCN(Cc2ccc(-c3ccccn3)cc2)C1` (stereo not given), the Potency is reported as inconclusive [inhibitor, single point]. With `O=C(Cc1coc2ccc3ccccc3c12)NC1CCCc2ccccc21` (stereo not given) the Potency was inconclusive [inhibitor, single point]. For `O=C(CNC(=O)C1COc2ccccc2O1)N/N=C\c1ccc(Cl)cc1` (stereo not given), the “activity change, negative = growth inhibition” value was inactive: -0.356%. In the case of `CCn1cc(CNC(=O)C2CCC(=O)N(Cc3ccc(Cl)cc3)C2)cn1` (stereo not given), the “activity change, negative = growth inhibition” value is reported as inactive: -2.58%. For `COc1ccc([C@H]2C[C@H](n3cc(COC(=O)c4ccccc4)nn3)[C@@H](O)CN2CC2CCCCC2)cc1`, the Potency was inconclusive [inhibitor, single point]. With `CCN(CC)C(=O)c1[nH]cnc1C(=O)Nc1ccc(OC)cc1` the “activity change, negative = growth inhibition” value was inactive: -6.29%. In the case of `CCOc1ccc(C(=O)NC2CCN(C(=O)N3CCCC3)CC2)cc1`, the activity change, negative = growth inhibition is reported as inconclusive: -32.6% [inhibitor]. With `COC(=O)C1=C(C)Nc2ccc(C)cc2S1` the Potency was inconclusive [inhibitor, single point]. For `O=C(c1ccccc1)N1CCCC(c2ccc(Cl)cc2)=N1`, the Potency was inconclusive [inhibitor, single point]. With `CCOc1ccc(NC(=O)Cn2nnc(-c3ccccc3NC(=O)CC)n2)cc1` the Potency was active: 16.4 µM. With `Cc1cc2[nH]c(=O)c(=O)[nH]c2cc1S(=O)(=O)Nc1cccc(C(F)(F)F)c1` the “activity change, negative = growth inhibition” value was inactive: -0.551%. For `O=C(Nc1ccc(OCc2ccccc2)cc1)Nc1ccccc1C(=O)NCCCN1CCOCC1`, the Potency was inconclusive [inhibitor, single point]. In the case of `CC(C)(C)NC(=O)C(c1ccc(-c2ccccc2)cc1)n1c(=O)c(-c2ccccc2)nc2ccccc21` (stereo not given), the Potency is reported as inconclusive [inhibitor, single point]. For `O=C(CN1C(=O)C2C3C=CC(C3)C2C1=O)OCC(=O)c1ccc(Cl)c([N+](=O)[O-])c1` (stereo not given), the Potency was inconclusive [inhibitor, single point]. In the case of `Cc1sc2ncn(CC(=O)N3CCN(c4ccc(F)cc4)CC3)c(=O)c2c1S(=O)(=O)N1CCN(c2ncccn2)CC1`, the Potency is reported as inconclusive [inhibitor, single point]. For `CC(C)c1ccc(NC(=O)/C(C#N)=C/c2ccncc2)cc1`, the Potency was inconclusive [inhibitor, single point]. In the case of `C=CCn1c(CCNC(=O)c2cccs2)nnc1SCC(=O)c1ccc(Cl)cc1`, the Potency is reported as inconclusive [inhibitor, single point]. For `Cc1csc(NC(CO)c2nc3ccccc3n2CCOCCO)n1` (stereo not given), the “activity change, negative = growth inhibition” value was inactive: 4.8%. In the case of `O=C(O)c1cccc(N2C(=O)CSC2c2ccccc2)c1` (stereo not given), the “activity change, negative = growth inhibition” value is reported as inactive: -6.87%.
